The values that follow come from patent US20230331822A1 (published 2023).

The target in test [1] is T1, HCoV-NL63 Spike protein, full length, C-terminally fused with EGFP (HCoV-NL63, UniProt Q6Q1S2 19-1356).
T1 construct: whole, on cells
T1 sequence: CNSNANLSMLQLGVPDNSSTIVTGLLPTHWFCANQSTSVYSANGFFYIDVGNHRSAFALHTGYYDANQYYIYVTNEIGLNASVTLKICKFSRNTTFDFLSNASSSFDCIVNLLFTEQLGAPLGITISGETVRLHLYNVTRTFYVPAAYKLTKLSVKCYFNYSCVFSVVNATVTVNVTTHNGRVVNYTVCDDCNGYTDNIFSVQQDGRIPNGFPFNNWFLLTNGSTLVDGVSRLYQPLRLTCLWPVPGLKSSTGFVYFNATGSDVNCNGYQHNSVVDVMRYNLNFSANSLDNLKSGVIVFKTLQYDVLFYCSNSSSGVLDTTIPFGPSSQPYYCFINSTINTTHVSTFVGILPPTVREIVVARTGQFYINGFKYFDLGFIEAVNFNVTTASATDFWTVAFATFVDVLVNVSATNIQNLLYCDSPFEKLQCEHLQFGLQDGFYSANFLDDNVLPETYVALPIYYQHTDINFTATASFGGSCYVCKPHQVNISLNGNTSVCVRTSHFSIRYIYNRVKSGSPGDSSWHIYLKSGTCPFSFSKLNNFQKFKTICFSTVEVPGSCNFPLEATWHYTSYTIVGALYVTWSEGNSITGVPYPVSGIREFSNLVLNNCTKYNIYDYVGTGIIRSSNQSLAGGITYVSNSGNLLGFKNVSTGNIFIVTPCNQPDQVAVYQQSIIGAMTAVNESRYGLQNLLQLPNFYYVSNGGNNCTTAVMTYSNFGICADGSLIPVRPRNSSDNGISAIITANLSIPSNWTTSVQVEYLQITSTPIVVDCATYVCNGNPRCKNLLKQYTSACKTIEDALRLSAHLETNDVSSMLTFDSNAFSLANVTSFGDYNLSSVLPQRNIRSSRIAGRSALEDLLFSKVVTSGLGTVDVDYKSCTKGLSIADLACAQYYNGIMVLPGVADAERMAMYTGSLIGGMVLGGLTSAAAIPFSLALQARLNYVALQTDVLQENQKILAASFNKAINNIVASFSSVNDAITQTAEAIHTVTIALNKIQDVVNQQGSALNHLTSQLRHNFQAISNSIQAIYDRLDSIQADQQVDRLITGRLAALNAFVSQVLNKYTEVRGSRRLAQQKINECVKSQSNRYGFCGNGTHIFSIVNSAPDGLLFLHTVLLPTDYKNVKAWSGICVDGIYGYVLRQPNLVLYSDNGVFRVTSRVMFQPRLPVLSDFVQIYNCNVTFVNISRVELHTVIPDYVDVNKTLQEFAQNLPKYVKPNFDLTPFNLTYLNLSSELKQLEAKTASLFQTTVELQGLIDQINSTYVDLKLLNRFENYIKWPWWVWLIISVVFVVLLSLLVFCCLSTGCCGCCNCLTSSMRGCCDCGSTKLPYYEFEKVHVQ
The test can be described thus: flow cytometry, HEK293 cells expressing full-length Spike-EGFP, anti-hIg-PE. A general note: In flow cytometry, cells or beads pass a laser one at a time.

The target in test [2] is T2, HCoV-HKU1 Spike protein, full length, C-terminally fused with EGFP (HCoV-HKU1, UniProt Q5MQD0 13-1356).
T2 construct: whole, on cells
T2 sequence: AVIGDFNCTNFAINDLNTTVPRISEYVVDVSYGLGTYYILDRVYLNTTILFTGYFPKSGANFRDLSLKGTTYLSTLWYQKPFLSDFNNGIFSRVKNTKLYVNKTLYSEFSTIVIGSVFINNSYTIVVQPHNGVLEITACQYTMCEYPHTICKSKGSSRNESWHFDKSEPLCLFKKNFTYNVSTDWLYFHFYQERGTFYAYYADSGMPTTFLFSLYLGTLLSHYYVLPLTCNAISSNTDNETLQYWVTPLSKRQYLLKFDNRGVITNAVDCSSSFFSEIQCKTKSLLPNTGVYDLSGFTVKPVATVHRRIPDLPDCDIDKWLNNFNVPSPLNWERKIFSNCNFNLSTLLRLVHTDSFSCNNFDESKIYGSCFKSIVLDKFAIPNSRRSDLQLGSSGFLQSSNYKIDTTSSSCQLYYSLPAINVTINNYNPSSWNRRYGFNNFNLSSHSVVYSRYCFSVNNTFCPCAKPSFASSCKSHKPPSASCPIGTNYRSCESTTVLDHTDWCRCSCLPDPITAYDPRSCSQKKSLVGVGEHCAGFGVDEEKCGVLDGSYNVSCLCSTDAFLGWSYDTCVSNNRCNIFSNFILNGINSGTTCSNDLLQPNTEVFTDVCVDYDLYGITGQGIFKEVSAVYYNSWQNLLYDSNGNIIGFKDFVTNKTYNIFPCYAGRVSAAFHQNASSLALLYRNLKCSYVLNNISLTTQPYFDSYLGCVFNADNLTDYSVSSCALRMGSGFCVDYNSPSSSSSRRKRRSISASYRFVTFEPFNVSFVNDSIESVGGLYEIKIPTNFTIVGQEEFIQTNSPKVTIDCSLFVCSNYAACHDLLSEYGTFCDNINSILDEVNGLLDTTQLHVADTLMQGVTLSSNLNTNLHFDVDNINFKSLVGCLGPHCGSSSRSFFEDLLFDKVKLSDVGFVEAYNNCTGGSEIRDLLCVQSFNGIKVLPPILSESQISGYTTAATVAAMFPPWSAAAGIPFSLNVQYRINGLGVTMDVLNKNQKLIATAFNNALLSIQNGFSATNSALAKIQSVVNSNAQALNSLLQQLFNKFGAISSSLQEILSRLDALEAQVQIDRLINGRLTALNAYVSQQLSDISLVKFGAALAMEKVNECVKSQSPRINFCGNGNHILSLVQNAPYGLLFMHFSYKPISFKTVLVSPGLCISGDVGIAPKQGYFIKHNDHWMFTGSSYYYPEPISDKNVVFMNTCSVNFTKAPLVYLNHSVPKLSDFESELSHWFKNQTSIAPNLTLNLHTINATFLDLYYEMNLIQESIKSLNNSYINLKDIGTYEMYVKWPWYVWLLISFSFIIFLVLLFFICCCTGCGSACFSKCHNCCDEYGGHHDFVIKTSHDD
Described as above.

B1: COV2-120-17-Fc (Fc fusion)
chain: QLQLVESGGDLVQPGESLRLSCVASGHTGSTYIIGWFRQAPGKEREGVSCISRSGILRSYADSVRGRFTISRENAKNAVYLEMNSLKPEDTAVYYCAARDSLTGVIGNTPGEYDYWGQGTQVTVSS[human IgG1 Fc with changes not listed]
For B1, the binding result in test [1] and in test [2] was “no binding” in each case.

B2: COV2-331-25-Fc (Fc fusion)
chain: QLQLVESGGDLVQPGESLRLSCVASGFTFSSYAIGWFRQAPGKEREGVSCLDVTGRSTSYADSVRGRFTISRENAKNAVYLEMNSLKPEDTAVYYCAAVYTPFRFAFKTDPDRQDHWGQGTQVTVSS[human IgG1 Fc with changes not listed]
For the molecule B2, the binding result in test [1] and in test [2] was “no binding” throughout.

B3: COV2-18-21-Fc (Fc fusion)
chain: QLQLVESGGDLVQPGESLRLSCVASGRTFSTYAIGWFRQAPGKEREGVSCISPSRIITSYADSVRGRFTISRENAKNAVYLEMNSLKPEDTAVYYCAADSSYGGRLGRRIDDYEYWGQGTQVTVSS[human IgG1 Fc with changes not listed]
B3: the binding result in test [1] and in test [2] was “no binding” throughout.

B4: COV2-153-18-Fc (Fc fusion)
chain: QLQLVESGGDLVQPGESLRLSCVASGRTVSSYVIGWFRQAPGKEREGVSCISRSGIITSYADSVRGRFTISRENAKNAVYLEMNSLKPEDTAVYYCAAAQTQVLPTEDRSYDYWGQGTQVTVSS[human IgG1 Fc with changes not listed]
As to B4, the binding result in test [1] and in test [2] was “no binding” in each case.

B5: COV2-32-26-Fc (Fc fusion)
chain: QLQLVESGGDLVQPGESLRLSCVASGRTFGTYRIGWFRQAPGKEREGVSCIFWSGGGASYADSVRGRFTISRENAKNAVYLEMNSLKPEDTAVYYCAARAPTTQEYDYWGQGTQVTVSS[human IgG1 Fc with changes not listed]
Turning to B5, the binding result in test [1] and in test [2] was “no binding” throughout.

B6: COV2-39-19-Fc (Fc fusion)
chain: QLQLVESGGDLVQPGESLRLSCVASGRTFTRYPIGWFRQAPGKEREGVSCISGSGIITSYADSVRGRFTISRENAKNAVYLEMNSLKPEDTAVYYCAVDNAPTSSLPLTPGEYDYWGQGTQVTVSS[human IgG1 Fc with changes not listed]
Regarding B6, the binding result in test [1] and in test [2] was “no binding” each time.

B7: COV2-151-23-Fc (Fc fusion)
chain: QLQLVESGGDLVQPGESLRLSCVASASGRTSSTIGWFRQAPGKEREGVSCITWSGGSTSYADSVRGRFTISRENAKNAVYLEMNSLKPEDTAVYYCAAGLSPLMLTASRRYEYWGQGTQVTVSS[human IgG1 Fc with changes not listed]
For B7, the binding result in test [1] and in test [2] was “no binding” in each case.

B8: COV2-214-24-Fc (Fc fusion)
chain: QLQLVESGGDLVQPGESLRLSCVASGRTVSMYAIGWFRQAPGKEREGVSCISRSGRSTSYADSVRGRFTISRENAKNAVYLEMNSLKPEDTAVYYCAARDGGLHYALYVEASHYNYWGQGTQVTVSS[human IgG1 Fc with changes not listed]
Take B8: the binding result in test [1] and in test [2] was “no binding” each time.

B9: COV2-114-1-Fc (Fc fusion)
chain: QLQLVESGGDLVQPGESLRLSCVASGLSLEHYAIGWFRQAPGKEREGVSCISDSGATRSYADSVRGRFTISRENAKNAVYLEMNSLKPEDTAVYYCSATPGAFRTCAFRDFSHLANWGQGTQVTVSS[human IgG1 Fc with changes not listed]
For B9, the binding result in test [1] and in test [2] was “no binding” in each case.

B10: COV2-360-3-Fc (Fc fusion)
chain: QLQLVESGGDLVQPGESLRLSCVASGFTLDSYAIGWFRQAPGKEREGVSCITKHGGTTSYADSVRGRFTISRENAKNAVYLEMNSLKPEDTAVYYCAADHRALRFGCAVVPGPYDYWGQGTQVTVSS[human IgG1 Fc with changes not listed]
Take B10: the binding result in test [1] and in test [2] was “no binding” each time.

B11: COV2-124-20-Fc (Fc fusion)
chain: QLQLVESGGDLVQPGESLRLSCVASGRTFSSYAIGWFRQAPGKEREGVSCISSGGITSYADSVRGRFTISRENAKNAVYLEMNSLKPEDTAVYYCAANRGRFTGWRSLTDYTYWGQGTQVTVSS[human IgG1 Fc with changes not listed]
On to B11, for which the binding result in test [1] and in test [2] was “no binding” each time.

B12: COV2-116-9-Fc (Fc fusion)
chain: QLQLVESGGDLVQPGESLRLSCVASGFTLDYYAIGWFRQAPGKEREGVSCISSSGTSTSYADSVRGRFTISRENAKNAVYLEMNSLKPEDTAVYYCAALQGSYYYTSLHQTEYDYWGQGTQVTVSS[human IgG1 Fc with changes not listed]
As to B12, the binding result in test [1] and in test [2] was “no binding” each time.

B13: COV2-187-2-Fc (Fc fusion)
chain: QLQLVESGGDLVQPGESLRLSCVASGLSLEHYAIGWFRQAPGKEREGVSCIDSSGGSTSYADSVRGRFTISRENAKNAVYLEMNSLKPEDTAVYYCAALQGSYYYTSLHQTEYDYWGQGTQVTVSS[human IgG1 Fc with changes not listed]
Take B13: the binding result in test [1] and in test [2] was “no binding” each time.

B14: COV2-171-11-Fc (Fc fusion)
chain: QLQLVESGGDLVQPGESLRLSCVASGFTLDYYAIGWFRQAPGKEREGVSCISPSGTSTSYADSVRGRFTISRENAKNAVYLEMNSLKPEDTAVYYCAAANPSYYYCSGYPHEYDDWGQGTQVTVSS[human IgG1 Fc with changes not listed]
As for B14, the binding result in test [1] and in test [2] was “no binding” each time.
